According to PubChem BioAssay AID1347165 (National Center for Advancing Translational Sciences (NCATS), 2019):
The campaign covered roughly 220,000 compounds. About 5,700 (2.6%) were called active. This list was built around the results that the source calls inconclusive (neither active nor inactive); the mix of calls is not that of the screen. The call rests on the fitted dose curve; in most records, active means well fitted inhibition curve with a large enough effect; inconclusive means small, poorly fitted or top-dose-only effect; inactive means no such curve, though single readings can be large or run the other way. Potencies of inconclusive entries are doubtful fits and often do not repeat.

biological target: Lysine-specific demethylase 5B (Homo sapiens) (UniProt Q9UGL1); assay: Primary screen for KDM5B Histone Demethylases FDH-coupled qHTS; settings: FDH-coupled NADH fluorescence (FDH is formaldehyde dehydrogenase); activity change, negative = inhibition: at 57.7 µM (top of the series) unless noted; further: nearly all actives have a fitted effect of over 70% in size; on activity change, negative = inhibition: 0% is about no effect
Sequence of UniProt Q9UGL1 (Q9UGL1 whole entry, looked up, the tested form may be a part): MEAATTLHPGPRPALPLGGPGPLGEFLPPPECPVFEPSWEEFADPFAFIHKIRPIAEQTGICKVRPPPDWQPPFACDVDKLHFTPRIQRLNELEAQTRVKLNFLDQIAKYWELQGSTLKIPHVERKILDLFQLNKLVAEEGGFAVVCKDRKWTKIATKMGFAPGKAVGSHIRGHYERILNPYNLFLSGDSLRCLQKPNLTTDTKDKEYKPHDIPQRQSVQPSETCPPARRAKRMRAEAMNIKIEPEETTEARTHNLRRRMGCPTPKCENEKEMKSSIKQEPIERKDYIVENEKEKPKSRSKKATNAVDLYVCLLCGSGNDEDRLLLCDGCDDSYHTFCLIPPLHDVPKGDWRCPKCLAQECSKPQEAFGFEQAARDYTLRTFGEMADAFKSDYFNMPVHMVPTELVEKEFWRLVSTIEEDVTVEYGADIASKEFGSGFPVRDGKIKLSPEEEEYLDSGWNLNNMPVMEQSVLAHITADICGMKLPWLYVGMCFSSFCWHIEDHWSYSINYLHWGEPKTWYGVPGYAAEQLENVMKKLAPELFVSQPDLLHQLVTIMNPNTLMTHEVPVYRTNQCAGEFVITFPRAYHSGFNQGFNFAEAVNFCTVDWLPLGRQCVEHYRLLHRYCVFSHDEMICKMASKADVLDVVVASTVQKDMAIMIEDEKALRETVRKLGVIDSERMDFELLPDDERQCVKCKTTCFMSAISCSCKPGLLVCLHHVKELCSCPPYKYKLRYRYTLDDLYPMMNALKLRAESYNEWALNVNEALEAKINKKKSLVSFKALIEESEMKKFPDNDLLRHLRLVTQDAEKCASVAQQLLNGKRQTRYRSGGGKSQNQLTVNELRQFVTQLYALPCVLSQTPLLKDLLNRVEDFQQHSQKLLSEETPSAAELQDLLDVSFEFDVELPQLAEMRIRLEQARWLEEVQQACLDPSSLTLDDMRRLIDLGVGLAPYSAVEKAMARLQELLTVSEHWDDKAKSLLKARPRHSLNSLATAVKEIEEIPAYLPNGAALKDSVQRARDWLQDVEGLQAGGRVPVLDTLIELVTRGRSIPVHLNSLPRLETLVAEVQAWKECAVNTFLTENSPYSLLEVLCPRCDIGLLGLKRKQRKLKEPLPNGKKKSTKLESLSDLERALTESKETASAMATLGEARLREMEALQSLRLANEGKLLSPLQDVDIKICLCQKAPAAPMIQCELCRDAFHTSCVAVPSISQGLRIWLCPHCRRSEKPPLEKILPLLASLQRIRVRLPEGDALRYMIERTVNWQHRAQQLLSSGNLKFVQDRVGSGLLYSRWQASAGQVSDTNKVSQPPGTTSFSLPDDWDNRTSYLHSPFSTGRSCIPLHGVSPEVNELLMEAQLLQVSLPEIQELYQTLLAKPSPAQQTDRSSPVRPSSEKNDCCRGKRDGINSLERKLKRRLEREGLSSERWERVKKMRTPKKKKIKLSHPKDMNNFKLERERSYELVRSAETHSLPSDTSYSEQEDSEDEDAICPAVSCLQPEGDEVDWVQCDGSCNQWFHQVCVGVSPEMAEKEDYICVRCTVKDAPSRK
Procedure, shortened: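 Inhibition is measured as reduced NADH fluorescence generation from FDH coupling to formaldehyde release. Truncated KDM5BΔAP at 200 nM final acts on H3K4me3 peptide (12.5 µM in substrate mix) in pH 7.5 HEPES buffer with Tween-20, 30 min, room temperature.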
Potency means the concentration at half of the fitted maximal effect; tags describe the fitted curve by direction and shape.

Structure (SMILES) | Potency | activity change, negative = inhibition
COc1ccc(C(=O)NCc2ccc3c(c2)CCN3C(=O)c2cccc(C)c2)cc1OC | inconclusive: 2.51 µM [inhibitor, full curve, poor fit] | –
CC(=O)N1CCN(c2oc(/C=C/c3ccccc3)nc2C#N)CC1 | inactive | –
O=C(Nc1cccc(F)c1)c1cccn2c(-c3ccc(F)cc3)nnc12 | inactive | –
Cc1ccc(C)c2c(=O)cc(CNC(CCn3cncn3)c3ccccc3)[nH]c12 (stereo unspecified) | inconclusive: 25.1 µM [inhibitor, partial curve, poor fit] | –
O=C(O)c1ccccc1NS(=O)(=O)c1ccc(N/N=C/c2c(-c3ccccc3)[nH]c3ccccc23)c([N+](=O)[O-])c1 | inactive | –
CC(C)c1ccc2c(c1)C(N1CCN(C)CC1)Cc1cccnc1S2 (stereo unspecified) | inconclusive: 39.8 µM [inhibitor, partial curve, poor fit] | –
CCN(C(=O)CC1COc2ccc(C(=O)N(C)C)cc2N1C)C1CC1 (stereo unspecified) | inactive | –
COc1cc(OC)cc(C(=O)Oc2ccccc2Cl)c1 | inactive | –
O=C(NCc1ccccc1S(=O)(=O)N1CCOCC1)c1ccc(F)cc1 | inactive | –
Cc1cc(CS(=O)(=O)Cc2cccc(Cl)c2)no1 | inactive | –
Cc1ccc(C)c(-c2csc(-c3nc(-c4ccccc4)cs3)n2)c1 | inconclusive: 10 µM [inhibitor, partial curve, poor fit] | –
Cc1ccc(NC(=O)Cn2cc(C(=O)c3cccs3)c3ccccc32)cc1C | inconclusive: 25.1 µM [inhibitor, partial curve, poor fit] | –
CCOC(=O)C1=C(CNCc2ccccc2Cl)NC(=O)NC1c1cc(C)ccc1C (stereo unspecified) | inactive | –
CCCN(CCC)C(=O)Cn1c(=O)n(-c2cccc(OC)c2)c(=O)c2c3c(sc21)CCCC3 | inconclusive: 39.8 µM [inhibitor, single point] | –
N#Cc1nc(-c2ccc(Cl)cc2)oc1N1CCN(CCO)CC1 | inconclusive: 25.1 µM [inhibitor, partial curve, poor fit] | –
COc1ccc(C2C(C(C)=O)=C(O)C(=O)N2c2cccc(OC)c2)cc1 (stereo unspecified) | inactive | –
Cc1ccccc1C(=O)N1CCC2(CC1)CCN(Cc1cccs1)c1ccccc1O2 | inconclusive: 14.1 µM [inhibitor, partial curve] | –
Cc1ccc(NC(=O)C2CCCN(c3nnc(-n4c(C)ccc4C)s3)C2)c(C)c1 (stereo unspecified) | inconclusive: 14.1 µM [inhibitor, partial curve, poor fit] | –
COc1cccc(NC(=O)CSc2nnc3scc(-c4ccc(Cl)cc4)n23)c1 | inactive | –
CCOC(=O)c1cnc2c(OC)cccc2c1Oc1ccccc1 | inconclusive: 11.2 µM [inhibitor, partial curve, poor fit] | –
COc1ccc(N(C(=O)c2ccc(OC)c(OC)c2)S(=O)(=O)c2ccc(Cl)cc2)cc1 | inconclusive: 31.6 µM [inhibitor, single point] | –
CN1CCC(Cc2ccc(C(=O)NCC3CCCCC3)cc2)CC1 | inconclusive: 35.5 µM [inhibitor, partial curve, poor fit] | –

Structure (SMILES) | Potency | activity change, negative = inhibition
Cc1ccc(C)c(NC(=O)CC2NCCNC2=O)c1 (stereo unspecified) | – | inconclusive: -34.3% [inhibitor] [at 11.5 µM]
COc1ccc(-c2nc(C#N)c(NCc3ccccc3Cl)o2)cc1 | inconclusive: 14.1 µM [inhibitor, partial curve, poor fit] | –
CCc1ccc(NCc2cc3cc4c(cc3n(CC(=O)Nc3cccc(OC)c3)c2=O)OCO4)cc1 | inconclusive: 3.55 µM [inhibitor, partial curve, poor fit] | –
COc1ccc(OC)c(NC(=O)c2c(C)oc3ccn(Cc4cccc(F)c4)c(=O)c23)c1 | active: 25.1 µM | –
CCc1cccc(C)c1NS(=O)(=O)c1cc2[nH]c(=O)c(=O)[nH]c2cc1C | inconclusive: 31.6 µM [inhibitor, partial curve, poor fit] | –
O=C(COC(=O)C1C2CCC(C2)C1C(=O)OCC(=O)c1ccc(OC(=O)c2ccco2)cc1)c1ccc(OC(=O)c2ccco2)cc1 (stereo unspecified) | inactive | –
COc1ccccc1-c1nc(SCC(=O)Nc2ccccc2)n2[nH]c(=O)cc2n1 | inactive | –
O=C1NCCCCCCN(Cc2ccncc2)[C@@H]2CN(C(=O)Nc3ccccc3)CC[C@@H]12 | inconclusive: 20 µM [inhibitor, partial curve, poor fit] | –
Cc1ccsc1[C@@H]1CCN(Cc2ccc(-c3ccn[nH]3)o2)C[C@H]1O | inconclusive: 8.91 µM [inhibitor, partial curve, poor fit] | –
COc1ccc(Cl)cc1-c1ccc2c(c1)C(=O)N1CC[C@H](NC(=O)C3CCCC3)[C@H]1C(=O)N2 | inactive | –
CN1CCCCCC(O)c2cc(C(=O)NCCC3=CCCCC3)ccc21 (stereo unspecified) | inconclusive: 39.8 µM [inhibitor, single point] | –
O=C(NCc1ccccn1)C1CCCN(C2CCN(S(=O)(=O)C3CC3)CC2)C1 (stereo unspecified) | inconclusive: 20 µM [inhibitor, partial curve] | –
CCOc1cc(-c2noc(-c3ncn4c3COC(c3ccc(F)cc3)C4)n2)ccc1OC (stereo unspecified) | inconclusive: 31.6 µM [inhibitor, single point] | –
CCOC(=O)c1sc(NC(=O)/C=C/c2ccc(C(C)C)cc2)c(C(=O)OCC)c1C | inconclusive: 5.62 µM [inhibitor, partial curve, poor fit] | –
Cc1cccc(CN2CCN(Cc3nc(-c4ccco4)oc3C)C(C)C2=O)c1 (stereo unspecified) | inconclusive: 14.1 µM [inhibitor, partial curve] | –
COc1cc(OC)cc(-c2onc(C)c2C(=O)NCCCOC(C)C)c1 | inactive | –
CCOc1ccccc1CN1CCC2(CCN([S+](=O)([O-])c3cccc(C(F)(F)F)c3)CC2)Oc2ccccc21 | active: 12.6 µM | –
Cc1[nH]c2ccc(C(=O)N3CCC4(CCCN(C)C4=O)C3)cc2c1C (stereo unspecified) | inactive | –
COC(=O)c1[nH]c2ccc(F)cc2c1NC(=O)CCN1CCC(C)CC1 | inconclusive: 25.1 µM [inhibitor, partial curve, poor fit] | –
Cc1ccc(NC(=O)c2csc3c2CCCCC3)c(C)c1 | inconclusive: 25.1 µM [inhibitor, partial curve, poor fit] | –
CN(C)CCN(C)C(=O)c1ccc(-c2ncc3cnc(-c4ccccc4)cn23)cc1 | active: 31.6 µM | –
CC1CCN(S(=O)(=O)N2CCC(C(=O)N3CCc4nc5cc[nH]n5c(=O)c4C3)CC2)CC1 | inconclusive: 31.6 µM [inhibitor, partial curve, poor fit] | –

Structure (SMILES) | Potency | activity change, negative = inhibition
N#Cc1ccccc1NCc1ccccn1 | inconclusive: 39.8 µM [inhibitor, single point] | –
CCN1CCOC(=O)C1CC(=O)Nc1cc(C)ccc1OC (stereo unspecified) | inconclusive: 1.41 µM [inhibitor, full curve, poor fit] | –
FC(F)(F)c1cccc(N2CCN(C(c3ccc(Br)cc3)c3nnc(-c4ccccc4)o3)CC2)c1 (stereo unspecified) | inactive | –
CCOc1ccccc1CN1CCC(N2CCOCC2)CC1 | inconclusive: 3.55 µM [inhibitor, full curve, poor fit] | –
Cc1nc2c(c(-c3ccc(O)cc3)n1)CN(Cc1cncs1)CC2 | inconclusive: 28.2 µM [inhibitor, single point] | –
COC(=O)C1CCN(C(=O)COC(=O)c2cc3ccccc3[nH]2)CC1 | inconclusive: 25.1 µM [inhibitor, single point] | –
O=c1[nH]cccc1-c1nc2ccccc2n1Cc1ccc(F)cc1 | inconclusive: 22.4 µM [inhibitor, partial curve, poor fit] | –
Cc1oc(-c2ccc(Cl)cc2)nc1Cn1nc(C)c2c(C)onc2c1=O | inconclusive: 10 µM [inhibitor, partial curve, poor fit] | –
O=C(CNc1nc(-c2ccccc2)nc2ccccc12)N1CCCC1 | inactive | –
O=C(NC1CCN(c2cc(-c3cccs3)[nH]n2)C1)c1cc(F)ccc1Cl (stereo unspecified) | inconclusive: 15.8 µM [inhibitor, partial curve, poor fit] | –
COc1ccc(-c2onc(C)c2C(=O)NCCOc2ccccc2)cc1 | inactive | –
COc1ccc(/C=C/c2nc3c(ccc4ccccc43)s2)c(OC)c1OC | inactive | –
COc1cccc(CNC(=O)CCc2c(C)nc3c(c(C)nn3-c3ccc(C)c(C)c3)c2C)c1 | inconclusive: 12.6 µM [inhibitor, partial curve, poor fit] | –
Cc1ncc2n1C(=O)N(C1CCN(Cc3ccnn3C)CC1)C2 | inactive | –
CC(CNC(=O)c1cc2ccccc2oc1=O)(c1ccccc1)c1ccccc1 | inactive | –
Cc1nc2c(-c3ccccc3)c(C)nn2c(C)c1CCC(=O)N1CCN(c2ccc(F)cc2)CC1 | inconclusive: 14.1 µM [inhibitor, partial curve, poor fit] | –
O=C(O)CCCC(=O)N1CCN2C(=O)c3cc(Br)ccc3NC(=O)[C@H]2C1 | inactive | –
Cc1c(Cl)cccc1NC(=O)COCc1cc(-c2ccc3c(c2)OCO3)on1 | inconclusive: 25.1 µM [inhibitor, single point] | –
O=C(O)Cn1ccc2cc(OCC3CCN(C(=O)CCC(F)(F)F)CC3)cnc21 | active: 35.5 µM | –
CCNc1cc(N2CCC(CCC(=O)N3CCN(c4cccc(OC)c4)CC3)CC2)ncn1 | inactive | –
CCOC(=O)c1c(NC(=S)Nc2ccc(OCC)cc2)sc2c1CCN(C)C2 | inconclusive: 28.2 µM [inhibitor, single point] | –
CCn1c(=O)c(C(=O)NNC(=O)c2ccccc2F)c(O)c2ccccc21 | inconclusive: 31.6 µM [inhibitor, single point] | –
